Results taken from a collection of fitness landscapes (doi:10.1016/j.celrep.2020.107928).
The full ranking holds about 81,000 sequences; the median of “one-hybrid fitness for binding parS DNA” is about -0.17, and the highest 2% start at about 0.51. The list shows a part of the results.

B1: Caulobacter ParB omega fusion; a variant is named by its letters at X, in order, B8GW30 (parent)
chain: MESVVVGEPGMSEGRRGLGRGLSALLGEVDAAPAQAPGEQLGGSREAPIEILQRNPDQPRRTFREEDLEDLSNSIREKGVLQPILVRPSPDTAGEYQIVAGERAWRAAQRAGLKTVPIMVRELDDLAVLEIGIIENVQRADLNVLEEALSYKVLMEKFERTQENIAQTIGKSXSHVANXMRLLXLPDEVQSYLVSGELTAXHARAIAAAADPVALAKQIIEGGLSVRETEALARKAPNLSAGKSKGGRPPRVKDTDTQALESDLSSVLGLDVSIDHRGSTGTLTITYATLEQLDDLCNRLTRGI

Variants of: B1
Experiment: one-hybrid fitness for binding parS DNA (scaled: cognate 1, non-cognate 0); higher = stronger binding
Conditions: with parS DNA site
Outline: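 Caulobacter ParB libraries with four specificity codons randomised were screened by bacterial one-hybrid selection in the E. coli USO strain, using a HIS3 reporter whose site lies 19 bp from the promoter. Selection ran for 48 hours at 37°C on M9 lacking histidine, with 0.1 mM IPTG and 5 mM 3-AT. Plasmids were Illumina-sequenced before and after selection, three replicate libraries were pooled, and variants with under 10 reads were dropped. Fitness is the log change in each variant's read ratio to wild type, rescaled against the cognate and non-cognate sites.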

| Variant | one-hybrid fitness for binding parS DNA |
| --- | --- |
| NPAG | ≤ 0.2 |
| VNHR | ≤ 0.2 |
| ADNG | ≤ 0.2 |
| PRST | ≤ 0.2 |
| CLIT | ≤ 0.2 |
| YCTL | ≤ 0.2 |
| YDRG | ≤ 0.2 |
| SACG | ≤ 0.2 |
| SFMT | ≤ 0.2 |
| LFAL | ≤ 0.2 |
| TCMG | ≤ 0.2 |
| VSPP | ≤ 0.2 |
| QAGL | ≤ 0.2 |
| DHQQ | ≤ 0.2 |
| LNVT | ≤ 0.2 |
| QHME | ≤ 0.2 |
| NQLR | ≤ 0.2 |
| SGEG | ≤ 0.2 |
| IKVT | ≤ 0.2 |
| QPVV | ≤ 0.2 |
| IQLS | ≤ 0.2 |

| Variant | one-hybrid fitness for binding parS DNA |
| --- | --- |
| YMYR | ≤ 0.2 |
| QDAV | ≤ 0.2 |
| WIHR | ≤ 0.2 |
| CNGS | 0.22 |
| CRPV | ≤ 0.2 |
| GRDR | ≤ 0.2 |
| RHAD | ≤ 0.2 |
| GIHG | ≤ 0.2 |
| GIPC | ≤ 0.2 |
| PLSN | ≤ 0.2 |
| QGSF | ≤ 0.2 |
| CSVL | ≤ 0.2 |
| KTIE | ≤ 0.2 |
| YCAS | ≤ 0.2 |
| QRYI | ≤ 0.2 |
| HRAF | ≤ 0.2 |
| QIGT | ≤ 0.2 |
| YLMH | ≤ 0.2 |
| GDDS | ≤ 0.2 |
| YANG | ≤ 0.2 |
| FHEY | ≤ 0.2 |

| Variant | one-hybrid fitness for binding parS DNA |
| --- | --- |
| PKLC | ≤ 0.2 |
| VEKT | ≤ 0.2 |
| YDAS | ≤ 0.2 |
| GQVT | ≤ 0.2 |
| ARWA | ≤ 0.2 |
| MQPS | ≤ 0.2 |
| RMAV | ≤ 0.2 |
| RAPY | ≤ 0.2 |
| NRLH | ≤ 0.2 |
| GYRD | ≤ 0.2 |
| KTKF | ≤ 0.2 |
| QERS | ≤ 0.2 |
| REMM | ≤ 0.2 |
| NLFL | ≤ 0.2 |
| LQDE | ≤ 0.2 |
| QYGM | ≤ 0.2 |
| LLSE | ≤ 0.2 |
| SCPS | ≤ 0.2 |
| YQYT | ≤ 0.2 |
| YPSC | ≤ 0.2 |
| YFWG | ≤ 0.2 |

| Variant | one-hybrid fitness for binding parS DNA |
| --- | --- |
| AFWA | ≤ 0.2 |
| SVMS | ≤ 0.2 |
| HLYC | ≤ 0.2 |
| ASMW | ≤ 0.2 |
| HHIQ | ≤ 0.2 |
| NPCR | ≤ 0.2 |
| DICG | ≤ 0.2 |
| TDSQ | ≤ 0.2 |
| ITKR | ≤ 0.2 |
| YCQV | ≤ 0.2 |
| PWST | ≤ 0.2 |
| VLNS | ≤ 0.2 |
| GSMR | ≤ 0.2 |
| TDVD | ≤ 0.2 |
| TQPV | ≤ 0.2 |
| QQMG | ≤ 0.2 |
| KTKC | ≤ 0.2 |
| QLPD | ≤ 0.2 |
| EWKS | ≤ 0.2 |
| QPNA | ≤ 0.2 |
| FLPL | ≤ 0.2 |
